Measurements from patent publication US20260216242A1, “ALPP-SPECIFIC VARIANT ANTIGEN BINDING MOLECULES” (ALMAC DISCOVERY LIMITED, priority 2022, published 2026).

Columns and labels:
[1] = biological target: ALPP/ALPPL2 on ALPP/ALPPL2 positive cancer cells; assay: cell-based or functional assay
[2] = biological target: ALPP/ALPPL2 on ALPP/ALPPL2 positive cancer cells (MKN1, NCI-H1651, NCI-N87, HPAC); assay: cell-based or functional assay

B1: D10 E10-hFc (S239C F405L/K409R) conjugated to MC-vc-PAB-MMAE (Fc fusion, DAR 2)
chain 1: QVQLVESGGGLVQPGGSLRLSCAASGSIFSVNTMGWYRQAPGKQRDLVAVATSGGTIHYADSVKGRFTISRDNAKNTVYLQMNSLKPEDTAVYYCNLVVPYGMIAGDHDYWGQGTKVTVSSGGGGSGGGGSGGGGS[human IgG1 Fc with changes not spelt out]
chain 2: QVQLVESGGGLVQAGGSLRLSCAVSGRALSDYNIGWFRQAPGKEREFVARKTWDGSSTRYDDSVKGRFTVSIEDAKNTAYLQMSSLKTEDTAVYYCAAGRYSRARGWEYDYWGQGTQVTVSSGGGGSGGGGSGGGGS[human IgG1 Fc with changes not spelt out]
modifications: here or on the partner: MC-vc-PAB-MMAE on Cys 239 (S239C, EU numbering)
IC50 @ 96 h (nM), cell-killing of NCI-H1651 cells (Cell Titre Glo) [1]: 3.9 nM

B2: F05-hFc (S239C)-MA-PEG4-vc-PAB-EDA-PNU159682 (Fc fusion)
chain: QVQLVESGGGLVQAGGSLRLSCAASGRAFGDYNIGWFRQAPGKEREFVARRTWDGSSTRYDDSVKGRFTVSIDNAKNTAYLQMNSLKTEDTAVYYCAAGRYSRVRGWEYDYWGQGTQVTVSSGGGGSGGGGSGGGGS[human IgG1 Fc with changes not spelt out]
modifications: here or on the partner: MA-PEG4-vc-PAB-EDA-PNU159682 on Cys 239 (S239C, EU numbering); DAR 1.94
% viability remaining, HPAC cells [2]: 0%
% viability remaining, MKN1 cells [2]: 8.5%
% viability remaining, NCI-H1651 cells [2]: 19.5%
% viability remaining, NCI-N87 cells [2]: 0%
cell killing IC50 @ 96 h, HPAC cells [2]: 94.6 nM
cell killing IC50 @ 96 h, MKN1 cells [2]: 0.24 nM
cell killing IC50 @ 96 h, NCI-H1651 cells [2]: 0.2 nM
cell killing IC50 @ 96 h, NCI-N87 cells [2]: 10.5 nM

B3: F05-hFc (S239C) [G4S]3 conjugated to MC-vc-PAB-MMAE (Fc fusion)
chain: QVQLVESGGGLVQAGGSLRLSCAASGRAFGDYNIGWFRQAPGKEREFVARRTWDGSSTRYDDSVKGRFTVSIDNAKNTAYLQMNSLKTEDTAVYYCAAGRYSRVRGWEYDYWGQGTQVTVSSGGGGSGGGGSGGGGS[human IgG1 Fc with changes not spelt out]
modifications: here or on the partner: MC-vc-PAB-MMAE on Cys 239 (S239C, EU numbering); DAR 1.87
IC50 @ 96 h (nM), cell-killing of NCI-H1651 cells (Cell Titre Glo) [1]: 110 nM

B4: A06 F05-hFc (S239C F405L/K409R) conjugated to MC-vc-PAB-MMAE (Fc fusion, DAR 2)
chain 1: QVHLVESGGGLVQAGGSLRLSCAASGRTFLSMGWFRQAPGKEREFVAAISWTGGSTGYADSVKGRFTISRESDKETMYLQMNSLKPEDTAVYYCAARGDVYYGGDDATRYKYWGQGTQVTVSSGGGGSGGGGSGGGGS[human IgG1 Fc with changes not spelt out]
chain 2: QVQLVESGGGLVQAGGSLRLSCAASGRAFGDYNIGWFRQAPGKEREFVARRTWDGSSTRYDDSVKGRFTVSIDNAKNTAYLQMNSLKTEDTAVYYCAAGRYSRVRGWEYDYWGQGTQVTVSSGGGGSGGGGSGGGGS[human IgG1 Fc with changes not spelt out]
modifications: here or on the partner: MC-vc-PAB-MMAE on Cys 239 (S239C, EU numbering)
IC50 @ 96 h (nM), cell-killing of NCI-H1651 cells (Cell Titre Glo) [1]: 4.6 nM

B5: E10-hFc (S239C)-MA-PEG4-vc-PAB-EDA-PNU159682 (Fc fusion)
chain: QVQLVESGGGLVQAGGSLRLSCAVSGRALSDYNIGWFRQAPGKEREFVARKTWDGSSTRYDDSVKGRFTVSIEDAKNTAYLQMSSLKTEDTAVYYCAAGRYSRARGWEYDYWGQGTQVTVSSGGGGSGGGGSGGGGS[human IgG1 Fc with changes not spelt out]
modifications: here or on the partner: MA-PEG4-vc-PAB-EDA-PNU159682 on Cys 239 (S239C, EU numbering); DAR 1.98
% viability remaining, HPAC cells [2]: 0%
% viability remaining, MKN1 cells [2]: 10.5%
% viability remaining, NCI-H1651 cells [2]: 21.1%
% viability remaining, NCI-N87 cells [2]: 0%
cell killing IC50 @ 96 h, HPAC cells [2]: 8 nM
cell killing IC50 @ 96 h, MKN1 cells [2]: 0.23 nM
cell killing IC50 @ 96 h, NCI-H1651 cells [2]: 0.38 nM
cell killing IC50 @ 96 h, NCI-N87 cells [2]: 9.3 nM

B6: E06-hFc (S239C) [G4S]3 conjugated to MC-vc-PAB-MMAE (Fc fusion)
chain: QVHLVESGGGLVQAGGSLRLSCAASRRSFSEYAMGWFRQAPGKEREFVAAIGWSGVIEYADSVKGRFTISRDNAKDTVYLQMNSLKPEDTAVYYCAAGLGIRVVSQTPAYWGQGTQVTVSSGGGGSGGGGSGGGGS[human IgG1 Fc with changes not spelt out]
modifications: here or on the partner: MC-vc-PAB-MMAE on Cys 239 (S239C, EU numbering); DAR 1.87
IC50 @ 96 h (nM), cell-killing of NCI-H1651 cells (Cell Titre Glo) [1]: > 1000 nM

B7: A06 E06-hFc (S239C F405L/K409R) conjugated to MC-vc-PAB-MMAE (Fc fusion, DAR 2)
chain 1: QVHLVESGGGLVQAGGSLRLSCAASGRTFLSMGWFRQAPGKEREFVAAISWTGGSTGYADSVKGRFTISRESDKETMYLQMNSLKPEDTAVYYCAARGDVYYGGDDATRYKYWGQGTQVTVSSGGGGSGGGGSGGGGS[human IgG1 Fc with changes not spelt out]
chain 2: QVHLVESGGGLVQAGGSLRLSCAASRRSFSEYAMGWFRQAPGKEREFVAAIGWSGVIEYADSVKGRFTISRDNAKDTVYLQMNSLKPEDTAVYYCAAGLGIRVVSQTPAYWGQGTQVTVSSGGGGSGGGGSGGGGS[human IgG1 Fc with changes not spelt out]
modifications: here or on the partner: MC-vc-PAB-MMAE on Cys 239 (S239C, EU numbering)
IC50 @ 96 h (nM), cell-killing of NCI-H1651 cells (Cell Titre Glo) [1]: 2.6 nM

B8: E06-hFc (S239C)-MA-PEG4-vc-PAB-EDA-PNU159682 (Fc fusion)
chain: QVHLVESGGGLVQAGGSLRLSCAASRRSFSEYAMGWFRQAPGKEREFVAAIGWSGVIEYADSVKGRFTISRDNAKDTVYLQMNSLKPEDTAVYYCAAGLGIRVVSQTPAYWGQGTQVTVSSGGGGSGGGGSGGGGS[human IgG1 Fc with changes not spelt out]
modifications: here or on the partner: MA-PEG4-vc-PAB-EDA-PNU159682 on Cys 239 (S239C, EU numbering); DAR 1.97
% viability remaining, HPAC cells [2]: 0%
% viability remaining, MKN1 cells [2]: 11.6%
% viability remaining, NCI-H1651 cells [2]: 24.5%
% viability remaining, NCI-N87 cells [2]: 0%
cell killing IC50 @ 96 h, HPAC cells [2]: 20 nM
cell killing IC50 @ 96 h, MKN1 cells [2]: 0.29 nM
cell killing IC50 @ 96 h, NCI-H1651 cells [2]: 0.54 nM
cell killing IC50 @ 96 h, NCI-N87 cells [2]: 33.5 nM

B9: E06 linker Cys-hFc-vcPAB-MMAE (S442C) (Fc fusion)
chain: QVHLVESGGGLVQAGGSLRLSCAASRRSFSEYAMGWFRQAPGKEREFVAAIGWSGVIEYADSVKGRFTISRDNAKDTVYLQMNSLKPEDTAVYYCAAGLGIRVVSQTPAYWGQGTQVTVSSGCGGSGGGGSGGGGS[human IgG1 Fc with changes not spelt out]
modifications: here or on the partner: MC-vc-PAB-MMAE on the linker Cys and on Cys 442 (S442C, EU numbering); DAR 4.1
% viability remaining, NCI-H1651 cells [2]: 27.1%
% viability remaining, NCI-N87 cells [2]: 40.5%
cell killing IC50 @ 96 h, NCI-H1651 cells [2]: 0.81 nM
cell killing IC50 @ 96 h, NCI-N87 cells [2]: 0.46 nM
